This is an account of results in the supplement of paper PMC10681739.

In all, about 2,700 sequences were measured (“arbitrary fluorescence units”: median about 4,100, highest 2% from about 54,000 on). This is one part of the list.

The target of this assay is T1, ETS1 (UniProt P14921).
T1 sequence: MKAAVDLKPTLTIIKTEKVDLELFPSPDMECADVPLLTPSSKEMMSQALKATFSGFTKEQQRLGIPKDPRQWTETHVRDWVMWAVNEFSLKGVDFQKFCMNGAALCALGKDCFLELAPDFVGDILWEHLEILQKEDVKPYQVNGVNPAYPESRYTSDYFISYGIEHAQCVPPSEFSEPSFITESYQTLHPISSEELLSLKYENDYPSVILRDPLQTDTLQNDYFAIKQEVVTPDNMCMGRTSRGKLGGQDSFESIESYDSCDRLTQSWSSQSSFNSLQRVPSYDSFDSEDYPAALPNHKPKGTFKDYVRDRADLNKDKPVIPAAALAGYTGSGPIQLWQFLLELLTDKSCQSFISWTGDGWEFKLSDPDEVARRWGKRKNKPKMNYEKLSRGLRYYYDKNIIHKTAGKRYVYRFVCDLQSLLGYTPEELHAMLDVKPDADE
The experiment in a line: ETS1 binding intensity (PBM fluorescence) (arbitrary fluorescence units); higher = stronger binding. To be noted: ETS1 concentration 10 nM. On the procedure: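 gcPBM on wild-type 36-bp genomic probes with two neighbouring ETS1 sites (4-24 bp apart). Recombinant human ETS1 (10 nM) was detected with anti-ETS1 antibody fluorescence. Values are medians over 3 replicate spots. The probes sit in constant array flanks that are not printed.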
As for ACTCCGGAAACATTCAAAATAGTCTCCCTTCCTCAG, the ETS1 binding intensity turned out to be 2820.
The same measure for CGCCGCGTCAACTTCCGGGCGGATGCCCGCCAGCAC: 23700.
The same measure for CGCCATCTTCCGCTCCACTAGCGTGTTCCGGGCGGT: 7100; for TCTTTTCAGTGTTTCCGGCTAGGAAATTTAAATGTT: 18000; for CCAGCCACTGCATCCGGCGGCCGGATCTAACTTACC: 16700.
Take CTAGTTTTGCATCCTGTGGCAACTTCCTGCTAGAAT: the ETS1 binding intensity amounted to 11900.
The same measure for CTCTGCCCAGGAAAACGGAGGGCAGGAAACGTCTCC: 444; for AAATTGGCAAGGAAATGAGCCCAGGAAGTAAGTTGG: 913.
The same measure for GAAGTCTTTGCACTTCCGTCTTCCGGGCGGAGGCCA: 10500; for TTCTATGGCTCCATCCTGCTTTCCGGCTGTCGCCCT: 1620; for TCACCCTCCAGGATGGCTGCTCCATCCTGTGCCCTC: 273.
The result for CAACAGGAAATACATACCTGTCCTGAGAGGAAGCAC reads 7320; that for GCTCCGCCCCCGGAAGCCTCACTTCCGGGCGCGAGC, 25300; that for TTTGAAGGAAGTGGCCTGGGCTGCGAAGGAAACATT, 625.
Consider CCCAAAGACAGGATGAGGCTCCAGGAAAATGACTAA, for which the ETS1 binding intensity is 762.
The sequence ACCCTCACAGGAAGTCGCACCTGAGGAAATCATCAC had an ETS1 binding intensity of 9450.
Sequence CCGTACGGAAGTGTGCTTTGGCGCACCGGAAGCCGA gave an ETS1 binding intensity of 8500.
Turning to CTTCGCCTTCCGCTGTGAATAATAGCTTCCTGAGGC, the ETS1 binding intensity came to 10100.
In the case of CTTTTTTCCGCTCTTCTCCCTCCTGCAGGAAACAGC, the ETS1 binding intensity turned out to be 6640.
The same measure for GTCCCACTGGAGAGGAAGGGGAAGTGGAGTCATAGG: 277; for CACCACATCCTCCTGTTTCAGGCACAGGATACCCTC: 7700; for GCCCAGGAAGCGAGAGCGCCGCCCACCCATCCGGGG: 650.
In the case of CCTGACGCATTTCCTGCCGGGGCTTCCGGGGCACCG, the ETS1 binding intensity came to 35400.
The same measure for CGCTGCCGGAATTCGTCTTGCCTGACGGAAGCTGGG: 517.
Regarding AAACAGGAAGAGAGAAATGTAGAAAACAGGATGAAT, the ETS1 binding intensity worked out at 717.
Turning to TCACACTGCGTGCATCCTGTTTCCTGTCGACAGTGG, the ETS1 binding intensity stood at 17800.
The same measure for GTAGAGGATGCTCCCCTCCGGCCGCCGCGGAAGCCG: 269.
As for ATGTGGTGCCGCAGGAAGCGGAAGCCCAGCAGCGTG, the ETS1 binding intensity was 1440.
The result for CTCTGTGACTTCCTGGAGACTCACTTCCTAGATGAG reads 11300.
Regarding TACTAAAGCATCCGCCCTCAGTCCTTCCTGAGGGCT, the ETS1 binding intensity is 6830.
The same measure for GCCGTTCACTTCCGCCACCAGCCGGAAGTTTTCTGT: 33000.
The result for TTCCCTTCCTGAGCCTGCTGAGATGCAGGAAGTAAA reads 1330.
The result for GAGAGGGAGGAAGGCTCAGAGGCAGGAAGAGGAGGA reads 282.
Sequence GACCGGATGTGGTTGTGGCTGAGGTCAGTTCCGGCG gave an ETS1 binding intensity of 21200.
Take ACGTCATCCGGCCACCCCGGCACGCGCCGGAAGTGC: the ETS1 binding intensity stood at 16900.
The result for TGCGACATATTTTCCGGAGTCCGGAAGCAGCTACTG reads 2400; that for AAGACTTCTACTTCCGGAGACTTCCTCATGCCATGC, 33400; that for GAAAGAACATCCTGTGCCCGTCGCCGGATGCGCGCG, 25700.
With GTCCCAGGAAGCAACGCGTGTCCGTTTTCCGGGCGC, the ETS1 binding intensity is 1150.
The same measure for GAATTCGAGTTCCGCCTCCTACCAGGAAGAACCGGC: 1950; for GCCCCGGAAGCGACGGCTTCGCTGCCCCGGAAGTGG: 10100; for TGATGCCACCACTTCCTCACTTCCTGTAGCCACACA: 17400.
The same measure for AGAAAGTACTTCCTGGATTGTCCAGGAAGTAGTCCT: 19100; for GACAGGAAGTAGCTGACACTCCATGCCAGGAAGTAG: 13600; for GGGGACCGGAAGCCAGCGGCAACAACTTCCGGCGGG: 23100.
Sequence CGGCGCGGGCGCGGAAGGCAGGAAGTGCCGCGGCGC had an ETS1 binding intensity of 3380.
Sequence TTTGTTCCCCTTCCTGACTCACTTCCTGCCAGTGAT showed an ETS1 binding intensity of 10000.
For the sequence TTTGCCAGGAAAACAACTTCAGGCAGGAAATGACCA, the ETS1 binding intensity came to 852.
The same measure for TCTTCTCCATCCGTTGGAGACACCGGAAACGCGCTG: 7140; for ATGGTAGATAACATCCGCCCCATCCGCTGGTCCCAT: 11300.
GATGCAGGAAGTGAGACAAACATCTGCTTCCTGCAG gave an ETS1 binding intensity of 11200.
The result for GCTGGAGGAAACAGGGCTGACACCACAGGAAACCTG reads 362; that for CCGGGCCGTGGCAGGAAGCCGGAAGCAGCCGCGGCC, 5680; that for TCCTGCCTCAGGATGCCGGGGGAGGAAGAGGAGCGG, 258.
CGCTGAACTTCCCGAGCTCGGGGTGGGATGTGGCCG had an ETS1 binding intensity of 734.
In the case of TGTACTTTAGGCTTCCTCTCAGGAAGTTCGGATTGA, the ETS1 binding intensity worked out at 1120.
The same measure for AAGAAGCGGAAGAGGAAGCTGGATAAGTCCGCCGCC: 3490; for ATTGAACTTCCTTCGCTCGGGCCCATTTCCTCAGCT: 5210; for GTATGTGTCTTCCGGCCAGCTCTCTTCCTGCTTCTG: 12900.
Regarding AACTCATTTCCTGAAGAAGCCCAGAGGAAACCGAGA, the ETS1 binding intensity is 12800.
Regarding ACATAACAGGAAATTTCAAATAACAGGAAACCAAGA, the ETS1 binding intensity stood at 6000.
The result for GTGCAGGATGCAGTTGCAAAGGAGCGCTTCCGATCG reads 1100.
